# Measurements published in PubChem BioAssay AID488969 (Vanderbilt High Throughput Screening Facility, 2010).
# In all, about 110,000 compounds were measured (“z-score”: median about -0.1, highest 2% from about 2 on). The list shows a part of the results. Non-standard residues stand in square brackets, D forms with d. Residues, ends and D or L forms follow the SMILES beside them. *: point of attachment. Phe(4-Me) = Cc1ccc(C[CH](N)C(=O)O)cc1; Bz = O=C(c1ccccc1)*
# Biological target: Metabotropic glutamate receptor 8 (Rattus norvegicus) (UniProt P70579)
# Test: mGluR8 Gi/Go-coupled signaling modulation – cell-based, rat, thallium flux, HTS, primary screen (AID 488969)
# Conditions: HEK293 rat mGluR8, GIRK (G protein-gated inwardly rectifying potassium channel) thallium flux, FluoZin2; at 10 µM; stronger effect = higher value; submaximal glutamate (EC20) added with thallium
# Chain of UniProt P70579 (P70579 whole entry, looked up): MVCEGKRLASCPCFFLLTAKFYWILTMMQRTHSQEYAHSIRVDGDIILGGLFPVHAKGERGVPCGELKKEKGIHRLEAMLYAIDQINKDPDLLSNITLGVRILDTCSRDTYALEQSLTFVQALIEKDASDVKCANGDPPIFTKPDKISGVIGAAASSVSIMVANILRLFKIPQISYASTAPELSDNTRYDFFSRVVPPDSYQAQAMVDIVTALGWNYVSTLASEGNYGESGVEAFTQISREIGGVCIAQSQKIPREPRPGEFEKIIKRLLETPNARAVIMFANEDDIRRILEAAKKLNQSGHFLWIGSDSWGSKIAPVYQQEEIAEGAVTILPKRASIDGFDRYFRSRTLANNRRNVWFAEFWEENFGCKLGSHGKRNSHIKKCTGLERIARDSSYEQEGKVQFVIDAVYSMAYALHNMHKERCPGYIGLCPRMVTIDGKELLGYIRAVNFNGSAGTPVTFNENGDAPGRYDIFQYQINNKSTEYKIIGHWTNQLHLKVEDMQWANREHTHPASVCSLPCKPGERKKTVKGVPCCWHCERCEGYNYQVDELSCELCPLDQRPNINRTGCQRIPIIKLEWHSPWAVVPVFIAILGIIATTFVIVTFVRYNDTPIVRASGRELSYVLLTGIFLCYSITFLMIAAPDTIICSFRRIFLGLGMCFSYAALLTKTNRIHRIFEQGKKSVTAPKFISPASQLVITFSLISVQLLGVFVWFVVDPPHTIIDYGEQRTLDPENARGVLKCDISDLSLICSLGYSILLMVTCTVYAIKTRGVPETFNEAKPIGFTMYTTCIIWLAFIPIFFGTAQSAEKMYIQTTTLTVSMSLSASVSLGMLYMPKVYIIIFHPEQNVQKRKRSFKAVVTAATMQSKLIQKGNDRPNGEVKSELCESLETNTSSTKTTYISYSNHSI
row,SMILES,z-score
1,Cc1occc1C(=O)NCc1ccccc1F,-0.28
2,CC(=O)N(c1cccc(Br)c1)C1C=CS(=O)(=O)C1 (centres undefined),0.499
3,COCc1[nH]nc2c1C1(CCSCC1)C(C#N)=C(N)O2,-0.316
4,COc1ccc(NC(=O)C(Cc2ccccc2)NC(=O)c2ccco2)cc1OC (centres undefined),0.151
5,CCC1CCCCN1C(=O)c1c(-c2ccccc2)noc1C (centres undefined),1.08
6,CCc1cc2c(-c3ccccc3)cc(=O)oc2c(CN2CCOCC2)c1O,-1.01
7,Cc1ccc(CC(NC(=O)c2ccccc2)C(=O)N2CCCC2C(=O)O)cc1 (centres undefined) (Bz-[Phe(4-Me)]-Pro-OH; configuration not given here),0.0412
8,CCCCCn1c(CN2CCN(CCO)CC2)nc2c1c(=O)n(C)c(=O)n2C,-0.374
9,O=C(CC1C(=O)NCCN1C(=O)c1ccc(F)cc1)OCc1ccccc1 (centres undefined),0.883
10,CSc1ncc(Cl)c(C(=O)NCc2ccc3c(c2)OCO3)n1,0.575
11,Cc1nnc(NC(=O)CSc2nc(C3CCCCC3)nc3ccccc23)s1,0.985
12,CCC(C)Nc1nc2c(c(=O)n(C)c(=O)n2C)n1Cc1ccc(F)cc1 (centres undefined),-0.265
13,COc1cccc(OC)c1OCCOc1ccc(C(=O)c2ccccc2)cc1,-0.556
14,O=C(NCCCN1CCOCC1)c1ccccc1-c1ccccc1,0.34
15,CC(C)n1nnnc1SCC(=O)Nc1ccc2c(c1)OCO2,0.129
16,CC(C)CCN(C)c1ccc(/C=N/n2cnnc2)cc1,-0.415
17,COC(=O)CCCCCCCCC(O)CN1CCCCC1 (centres undefined),0.695
18,O=C(Nc1ncc(C(F)(F)F)cc1Cl)C1COc2ccccc2O1 (centres undefined),-0.304
19,CCCn1c(=O)c2ccccc2n2c(SCc3cc(=O)n4ccsc4n3)nnc12,-0.363
20,Cc1ccc(NS(=O)(=O)c2cc(C(=O)O)ccc2Cl)cc1,-0.156
21,O=C(CCSc1nc(-c2ccc3c(c2)OCO3)cc(C(F)(F)F)n1)NCc1ccco1,0.587
22,COCCOCCn1cnc2ccccc21,0.155
23,Cc1nn(Cc2ccccc2)c(C)c1CCC(=O)O,-0.441

row,SMILES,z-score
1,CCN(C(=O)CCc1nc(-c2ccc(OC)cc2)no1)c1cc(OC)ccc1OC,-0.369
2,COC1CCCCC1Nc1ccc(C)c(C)c1 (centres undefined),0.0883
3,O=S(=O)(N1CCCCC1)n1c(Cc2ccccc2)nc2ccccc21,0.152
4,Cc1cc(C)cc(NC(=O)CC2NCCNC2=O)c1 (centres undefined),-0.216
5,CC(C)(C)C(=O)Nc1cc(NC(=O)C(C)(C)C)cc(C(=O)Nc2cc(C(=O)O)cc(C(=O)O)c2)c1,0.00761
6,C=CCN=C(C)C1=C(O)CCC1=O,0.228
7,CCCn1c(NC(=O)c2ccc(C)cc2)nc2ccccc21,1.82
8,Cc1nc(C(=O)Nc2ccc(Cl)cc2Cl)nn1-c1cc(OC(C)C)c(Cl)cc1Cl,-0.00447
9,CCC(C)Nc1nc(CN2CCOCC2)nc2sc3c(c12)CCC3 (centres undefined),-0.57
10,Cc1c(Br)c(C(F)(F)F)nn1CC(=O)N1CCCC1,-0.485
11,Cn1c(NC(=O)c2cccs2)cc(=O)n(C)c1=O,-0.59
12,Cc1occc1C(=O)Nc1ccc(Br)cc1F,0.0742
13,CCc1cc2cc(C(=O)Nc3ccccc3F)sc2s1,0.285
14,CC(=O)c1cc2c(cc1NC(=O)CCNC(=O)c1ccccc1Cl)OCO2,-0.212
15,Cc1nn(Cc2ccc(Cl)c(Cl)c2)c(C)c1NC(=O)c1cn(-c2ccccc2)nc1-c1ccccc1,-0.043
16,CCCC1(CCC)NC(=O)N(CC(=O)N2CCN(C(=O)c3ccco3)CC2)C1=O,-0.204
17,Cc1ccc(S(=O)(=O)c2c(C)nn(C(C)(C)C)c2OC(=O)C(C)(C)C)cc1,-0.0785
18,O=C(OCc1ccccc1)/C(=C/c1cccc2ccccc12)NC(=O)c1ccccc1,0.00663
19,O=C(NCCc1ccccc1)c1cnc2ccccn2c1=O,-0.0945
20,CC(C)(C)C(=O)Nc1cccc(-c2nnc(-c3cccc(NC(=O)C(C)(C)C)c3)o2)c1,0.0214
21,O=C1CCC(C(=O)Nc2cccc(C(F)(F)F)c2)N1 (centres undefined),-0.0874
22,CSc1ccc(/C=C/C(=O)c2ccc(NC(=O)C(C)C)cc2)cc1,-0.0216
23,CCOC(=O)C(C)c1nc2ccccc2[nH]c1=O (centres undefined),0.169

row,SMILES,z-score
1,CCOc1ccc(OCC)c(NC(=O)C2CCN(S(=O)(=O)c3cccc4nonc34)CC2)c1,0.0264
2,O=C(Cn1c(=O)n(-c2ccccc2)c(=O)c2sccc21)N1CCCC1,-0.24
3,Cn1c(=O)c2c(c3ccccc31)OC(C)(C)CC2,-0.136
4,c1ccc(-c2csc(Nc3ccc4c(c3)OCCO4)n2)cc1,-0.448
5,COc1ccc(S(=O)(=O)N[C@@H](C)C(=O)OCC(=O)Nc2cc3oc4ccccc4c3cc2OC)cc1,-0.185
6,Cc1ccc(Nc2nc(C(=O)N3CCC(C(=O)NCCN4CCOCC4)CC3)cs2)cc1,0.0131
7,Cc1cc(C)cc(OCC(=O)Nc2cccc(-c3nnc(-c4ccco4)o3)c2)c1,-0.742
8,Cc1ccc(SCc2[nH]nc3c2C2(C(=O)Nc4ccc(F)cc42)C(C#N)=C(N)O3)cc1 (centres undefined),0.575
9,Cc1ccc(N(C(=O)C(F)(F)F)C(C(=O)NC2CCCCC2)c2ccncc2)cc1C (centres undefined),0.363
10,O=C(Cn1c(O)c(/C=C2\C=Nc3ccc(Br)cc32)sc1=O)N1CCCC1,0.239
11,Clc1ccc(-c2noc(CCCOc3ccccc3)n2)cc1,0.161
12,CCCNS(=O)(=O)c1cccc(C(=O)NC2CCCc3ccccc32)c1 (centres undefined),-0.314
13,N#CC1=C(N)Oc2n[nH]c(-c3ccccc3)c2C1c1ccsc1 (centres undefined),0.797
14,O=C(NNc1c2ccccc2nc2ccccc12)c1cccc(O)c1,-0.199
15,COC(=O)c1[nH]c2ccc(F)cc2c1NC(=O)CCN1CCN(C(=O)c2ccco2)CC1,0.844
16,N#Cc1nc(-c2ccccc2F)oc1NCc1ccccc1,-0.568
17,CC1=CC(C)(C)N2C(=O)C3(C(C#N)=C(N)OC4=C3C(=O)CC(C)(C)C4)c3c(C)c(C)cc1c32 (centres undefined),0.0499
18,Cc1ccc(N/C(CSC(N)=O)=N/S(=O)(=O)c2ccccc2)cc1,0.33
19,CCOC(=O)/C=c1\s/c(=C(\C#N)C(=O)OCC)n(-c2ccccc2)c1=O,1.9
20,CCOC(=O)C1=C(C)NC(=O)NC1c1ccc(OCC(=O)N2CCCCC2)cc1 (centres undefined),-0.169
21,CCOc1ccc(/C=N/N(C)c2ccccc2)cc1OC,-0.108
22,O=C(CSc1nnc(-c2ccco2)n1-c1ccccc1)NCc1ccco1,-0.193
23,CC(=O)N(/N=C1\Sc2ccccc2C1=O)c1cccc(C)c1,-0.703
